# Data published in the supplement of paper PMC8728848.
# This is one part of the list.
# B1: PX9896A-bth-573-26-573 (Bacteroides thetaiotaomicron) (protein)
# chain: ETNNLKTKEDMYKYFGTSKSMLTHVYSYMPQGYQLFATSGGIFTEDRYSMRDCASDDGEFGAYADNIQNTNNGNWSPIKTYDDSWTLYRGIRAANSFIAEIAQVDFTRYEHDGQYTNWMKQLKYFPYEARVLRAHYFFELARRYGDIAMPLEVLTEEEANTIGKTPFSEVISFIVSECDDAANNLPDSYVNEPGAEIGRVTKGFAMAVKSKALLYAASKLHNPSMDTELWKKSAKAAIDIINTGLYSLDPQESANNLDSKEVVLMRINGDDSDFEMFNLPLRMTAGTRTSSLIPYSNYPSQNLVDAFETVNGYKVTLENTGWVCEDPAFDPQSPYENRDKRFYRAILANGMSFKDYTIETFKGGADDGIVSQGGSPTGYFLRKYIQEATSFEPGKEAVSKHHWVIYRYAETLLTYAESMVNAFNDVNYTDETYKYSALWAINEVRKNADMPLIPSMGKDEFMERLYNEWRVEFAFEDHRFWDVRRWKIADTTQRELYGVKIEKQADGTFNFYKNLYETRNWRDCMYLYPIPQSELYKNTNLNPQNTGW
# Legend:
# Assay in all cases: glycan array binding signal (z-score within array); higher = stronger binding
# Settings in all cases: glycan notation: IUPAC condensed, linker removed
# [1] = biological target: Man(a1-2)Man(a1-3)[Man(a1-2)Man(a1-6)]Man(a1-6)[Man(a1-2)Man(a1-2)Man(a1-3)]Man
# Summary of the method: (§1)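 Columns mapping to the same glycan were averaged after glycan names were converted to IUPAC-condensed notation. The data come from 3228 arrays in the Consortium for Functional Glycomics database, limited to those with an available protein sequence. Binding is reported as a within-array Z-score averaged across arrays of one protein sequence and across linkers.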
# [2] = biological target: Man(a1-2)Man(a1-3)[Man(a1-2)Man(a1-6)]Man(a1-6)[Man(a1-2)Man(a1-2)Man(a1-3)]Man(b1-4)GlcNAc(b1-4)GlcNAc
# Summary of the method: as §1
# [3] = biological target: Man(a1-2)Man(a1-3)[Man(a1-6)]Man(a1-6)[Man(a1-2)Man(a1-3)]Man(b1-4)GlcNAc(b1-4)GlcNAc
# Summary of the method: as §1
# [4] = biological target: Man(a1-2)Man(a1-6)[Man(a1-3)]Man(a1-6)[Man(a1-2)Man(a1-2)Man(a1-3)]Man
# Summary of the method: as §1
# [5] = biological target: Man(a1-2)Man(a1-6)[Man(a1-3)]Man(a1-6)[Man(a1-2)Man(a1-2)Man(a1-3)]Man(b1-4)GlcNAc(b1-4)GlcNAc
# Summary of the method: as §1
# Man(a1-3)[Man(a1-6)]Man = biological target: Man(a1-3)[Man(a1-6)]Man
# Summary of the method: as §1
# [6] = biological target: Man(a1-3)[Man(a1-6)]Man(a1-6)[Man(a1-2)Man(a1-3)]Man(b1-4)GlcNAc(b1-4)GlcNAc
# Summary of the method: as §1
# [7] = biological target: Man(a1-3)[Man(a1-6)]Man(a1-6)[Man(a1-3)]Man
# Summary of the method: as §1
# [8] = biological target: Man(a1-3)[Man(a1-6)]Man(a1-6)[Man(a1-3)]Man(b1-4)GlcNAc(b1-4)GlcNAc
# Summary of the method: as §1
# [9] = biological target: Man(a1-3)[Man(a1-6)]Man(b1-4)GlcNAc(b1-4)GlcNAc
# Summary of the method: as §1
# [10] = biological target: Man(a1-3)[Man(a1-6)]Man(b1-4)GlcNAc(b1-4)[Fuc(a1-6)]GlcNAc
# Summary of the method: as §1
# Man(a1-6)Man = biological target: Man(a1-6)Man
# Summary of the method: as §1
# Man(b1-4)GlcNAc = biological target: Man(b1-4)GlcNAc
# Summary of the method: as §1
# MurNAc(b1-4)GlcNAc = biological target: MurNAc(b1-4)GlcNAc
# Summary of the method: as §1
# Neu5Ac(a2-3)Gal = biological target: Neu5Ac(a2-3)Gal
# Summary of the method: as §1
# [11] = biological target: Neu5Ac(a2-3)Gal(b1-3)GalNAc
# Summary of the method: as §1
# [12] = biological target: Neu5Ac(a2-3)Gal(b1-3)GalNAc(b1-3)Gal(a1-4)Gal(b1-4)Glc
# Summary of the method: as §1
# [13] = biological target: Neu5Ac(a2-3)Gal(b1-3)GalNAc(b1-4)[Neu5Ac(a2-3)]Gal(b1-4)Glc
# Summary of the method: as §1
# [14] = biological target: Neu5Ac(a2-3)Gal(b1-3)GalNAc(b1-4)[Neu5Ac(a2-8)Neu5Ac(a2-3)]Gal(b1-4)Glc
# Summary of the method: as §1
# [15] = biological target: Neu5Ac(a2-3)Gal(b1-3)GalNAc6S
# Summary of the method: as §1
# [16] = biological target: Neu5Ac(a2-3)Gal(b1-3)GlcNAc
# Summary of the method: as §1
# [17] = biological target: Neu5Ac(a2-3)Gal(b1-3)GlcNAc(b1-2)Man
# Summary of the method: as §1
# [18] = biological target: Neu5Ac(a2-3)Gal(b1-3)GlcNAc(b1-2)Man(a1-3)[GlcNAc(b1-4)][Neu5Ac(a2-3)Gal(b1-3)GlcNAc(b1-2)Man(a1-6)]Man(b1-4)GlcNAc(b1-4)GlcNAc
# Summary of the method: as §1
# [19] = biological target: Neu5Ac(a2-3)Gal(b1-3)GlcNAc(b1-2)Man(a1-3)[Neu5Ac(a2-3)Gal(b1-3)GlcNAc(b1-2)Man(a1-6)]Man(b1-4)GlcNAc(b1-4)GlcNAc
# Summary of the method: as §1
# [20] = biological target: Neu5Ac(a2-3)Gal(b1-3)GlcNAc(b1-3)Gal(b1-3)GlcNAc
# Summary of the method: as §1
# [21] = biological target: Neu5Ac(a2-3)Gal(b1-3)GlcNAc(b1-3)Gal(b1-4)GlcNAc
# Summary of the method: as §1
# [22] = biological target: Neu5Ac(a2-3)Gal(b1-3)GlcNAc(b1-3)GalNAc
# Summary of the method: as §1
# [23] = biological target: Neu5Ac(a2-3)Gal(b1-3)GlcNAc(b1-4)Gal(b1-4)Glc
# Summary of the method: as §1
# [24] = biological target: Neu5Ac(a2-3)Gal(b1-3)GlcNAc(b1-6)GalNAc
# Summary of the method: as §1
# [25] = biological target: Neu5Ac(a2-3)Gal(b1-3)GlcNAc6S
# Summary of the method: as §1
binder,measurement,setting,value
B1,glycan array binding signal (z-score),[1],0.109
same,glycan array binding signal (z-score),[2],-0.101
same,glycan array binding signal (z-score),[3],-0.606
same,glycan array binding signal (z-score),[4],-0.132
same,glycan array binding signal (z-score),[5],-0.735
same,glycan array binding signal (z-score),Man(a1-3)[Man(a1-6)]Man,-0.332
same,glycan array binding signal (z-score),[6],0.671
same,glycan array binding signal (z-score),[7],-0.035
same,glycan array binding signal (z-score),[8],-0.145
same,glycan array binding signal (z-score),[9],-0.508
same,glycan array binding signal (z-score),[10],-0.666
same,glycan array binding signal (z-score),Man(a1-6)Man,0.028
same,glycan array binding signal (z-score),Man(b1-4)GlcNAc,-0.822
same,glycan array binding signal (z-score),MurNAc(b1-4)GlcNAc,-0.548
same,glycan array binding signal (z-score),Neu5Ac(a2-3)Gal,0.151
same,glycan array binding signal (z-score),[11],-0.359
same,glycan array binding signal (z-score),[12],0.015
same,glycan array binding signal (z-score),[13],-0.656
same,glycan array binding signal (z-score),[14],-0.067
same,glycan array binding signal (z-score),[15],-0.088
same,glycan array binding signal (z-score),[16],-0.406
same,glycan array binding signal (z-score),[17],-0.517
same,glycan array binding signal (z-score),[18],-0.678
same,glycan array binding signal (z-score),[19],0.799
same,glycan array binding signal (z-score),[20],-0.806
same,glycan array binding signal (z-score),[21],0.343
same,glycan array binding signal (z-score),[22],-0.502
same,glycan array binding signal (z-score),[23],-0.475
same,glycan array binding signal (z-score),[24],-0.467
same,glycan array binding signal (z-score),[25],0.324
